What all share (assay): fluorescence anisotropy
For assay [1], the target named is T1, NR peptide.
T1 chain: NRLLLTG

Assay [2] has as its target T2, NR peptide (also: fluorescein-labelled, position not given here).
T2 chain: NRLLLTG

For assay [3], the target named is T3, NR peptide (also: fluorescein-labelled, position not given here).
T3 chain: NRLLLTG

No end group written: not given here.

B1: DnaK N170D (protein)
chain: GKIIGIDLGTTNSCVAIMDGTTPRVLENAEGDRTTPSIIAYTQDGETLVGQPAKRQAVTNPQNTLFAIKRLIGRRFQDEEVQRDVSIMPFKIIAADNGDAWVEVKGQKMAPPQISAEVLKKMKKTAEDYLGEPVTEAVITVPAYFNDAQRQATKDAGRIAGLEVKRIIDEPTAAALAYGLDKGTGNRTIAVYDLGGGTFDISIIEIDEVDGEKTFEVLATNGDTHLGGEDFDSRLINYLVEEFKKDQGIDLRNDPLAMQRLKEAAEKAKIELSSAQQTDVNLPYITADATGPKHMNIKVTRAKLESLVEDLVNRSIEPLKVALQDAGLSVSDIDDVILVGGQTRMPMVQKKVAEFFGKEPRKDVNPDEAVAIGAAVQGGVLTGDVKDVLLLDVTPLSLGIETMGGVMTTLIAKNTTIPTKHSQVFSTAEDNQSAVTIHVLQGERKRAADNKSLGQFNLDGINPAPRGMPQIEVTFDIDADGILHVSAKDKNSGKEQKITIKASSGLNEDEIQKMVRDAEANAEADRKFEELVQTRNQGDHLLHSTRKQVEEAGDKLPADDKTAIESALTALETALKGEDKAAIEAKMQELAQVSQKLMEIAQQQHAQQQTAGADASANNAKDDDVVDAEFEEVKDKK
In general, Kd refers to the constant that tells how readily two partners part at equilibrium. Higher therefore signals weaker binding. As for B1, the affinity in the assay with NR peptide [1], expressed as Kd, was 1710 nM.

B2: DnaK I160D (protein)
chain: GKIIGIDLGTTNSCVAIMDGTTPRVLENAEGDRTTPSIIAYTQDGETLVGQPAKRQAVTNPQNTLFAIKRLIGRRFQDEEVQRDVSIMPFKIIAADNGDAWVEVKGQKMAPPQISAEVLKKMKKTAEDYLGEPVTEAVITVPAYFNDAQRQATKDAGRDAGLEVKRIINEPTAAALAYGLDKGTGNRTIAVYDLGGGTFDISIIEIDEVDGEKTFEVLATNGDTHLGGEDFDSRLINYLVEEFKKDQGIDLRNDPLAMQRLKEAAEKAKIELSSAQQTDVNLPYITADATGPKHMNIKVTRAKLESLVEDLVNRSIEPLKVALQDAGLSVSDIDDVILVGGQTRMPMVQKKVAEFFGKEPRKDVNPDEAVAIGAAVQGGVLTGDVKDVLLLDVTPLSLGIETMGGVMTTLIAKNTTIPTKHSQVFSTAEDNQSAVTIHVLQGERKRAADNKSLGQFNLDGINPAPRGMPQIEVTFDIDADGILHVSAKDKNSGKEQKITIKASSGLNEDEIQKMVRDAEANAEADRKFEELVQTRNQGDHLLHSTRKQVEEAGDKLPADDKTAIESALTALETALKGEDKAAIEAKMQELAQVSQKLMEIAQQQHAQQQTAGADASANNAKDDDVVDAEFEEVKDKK
Turning to B2, binding with NR peptide [1] was characterised by a dissociation constant (Kd) of 2900 nM. Against the preceding molecule, the Kd is about 1.7-fold higher.

B3: DnaK (protein)
chain: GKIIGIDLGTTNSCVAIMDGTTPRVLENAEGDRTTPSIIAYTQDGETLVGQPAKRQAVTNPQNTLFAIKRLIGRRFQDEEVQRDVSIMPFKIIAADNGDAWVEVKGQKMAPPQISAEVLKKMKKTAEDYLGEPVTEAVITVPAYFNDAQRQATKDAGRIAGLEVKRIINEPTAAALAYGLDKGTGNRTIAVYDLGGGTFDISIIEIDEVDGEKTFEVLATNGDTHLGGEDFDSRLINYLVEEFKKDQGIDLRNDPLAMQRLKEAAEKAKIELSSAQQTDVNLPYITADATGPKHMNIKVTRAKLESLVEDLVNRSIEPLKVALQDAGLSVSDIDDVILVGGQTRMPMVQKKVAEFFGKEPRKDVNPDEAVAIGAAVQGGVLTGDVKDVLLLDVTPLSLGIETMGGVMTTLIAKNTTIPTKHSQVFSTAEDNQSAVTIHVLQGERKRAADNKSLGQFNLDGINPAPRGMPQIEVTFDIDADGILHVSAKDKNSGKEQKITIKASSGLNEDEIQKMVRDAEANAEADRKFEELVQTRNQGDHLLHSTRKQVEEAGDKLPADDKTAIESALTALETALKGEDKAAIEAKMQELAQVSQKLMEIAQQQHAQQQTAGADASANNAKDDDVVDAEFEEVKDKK
Turning to B3, the Kd with NR peptide [2] came to 1640 nM; with NR peptide [3], 36700 nM.

B4: DnaK I483D (protein)
chain: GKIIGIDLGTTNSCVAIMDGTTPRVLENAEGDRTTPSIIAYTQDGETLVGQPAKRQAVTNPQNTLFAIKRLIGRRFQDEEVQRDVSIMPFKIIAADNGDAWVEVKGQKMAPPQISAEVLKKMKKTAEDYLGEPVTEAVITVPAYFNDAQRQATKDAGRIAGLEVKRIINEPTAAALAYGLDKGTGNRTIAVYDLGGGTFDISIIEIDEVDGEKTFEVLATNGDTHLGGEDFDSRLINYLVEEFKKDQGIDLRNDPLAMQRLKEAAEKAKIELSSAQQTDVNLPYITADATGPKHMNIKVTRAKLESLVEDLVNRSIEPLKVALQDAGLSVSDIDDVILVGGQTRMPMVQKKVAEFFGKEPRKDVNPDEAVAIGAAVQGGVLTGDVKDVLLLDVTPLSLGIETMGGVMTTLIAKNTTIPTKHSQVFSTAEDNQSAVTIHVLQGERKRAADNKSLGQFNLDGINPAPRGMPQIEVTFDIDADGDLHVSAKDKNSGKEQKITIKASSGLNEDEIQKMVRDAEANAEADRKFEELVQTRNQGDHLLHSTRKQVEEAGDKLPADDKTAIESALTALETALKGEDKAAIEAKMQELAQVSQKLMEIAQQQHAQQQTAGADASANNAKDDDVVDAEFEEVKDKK
In turn, B4 yielded a Kd in the assay with NR peptide [1] of 1750 nM.

The values are drawn from publication PMC7968864 (2020).
